Reference: patent US20140193437A1, “HYDROPHILIC SELF-IMMOLATIVE LINKERS AND CONJUGATES THEREOF” (BioAlliance C.V., priority 2012, published 2014)

What was measured:
[1] = system: colorectal cancer cell line DLD-1; test: In-vitro cytotoxicity by WST-1 assay, DLD-1; assay type: cell-based; details: DLD-1 (binding-positive), Table 6
Method: The colorectal cancer cell line DLD-1 (BCRC, Cat. No. 60132) was cultured in RPMI Medium 1640 supplemented with 10% FBS, 1 mM sodium pyruvate (GIBCO, Cat. No. 11360), and 100 U/mL penicillin/100 μg/mL streptomycin.
(§1) Cancer cells SNU-16, Panc 02.03B, COLO 205 and SW480 were seeded 1×10^4, 3×10^3, 2×10^4 and 1.2×10^4 cells/well, respectively, on 96-well microtiter plates. Cancer cells DLD-1 and PANC-1 were seeded 1×10^4 cells/well on 96-well microtiter plates. h5F1Ca.1/Tap18H ADC, h5F1Ca.1/Tap18Hr1 or naked antibody h5F1Ca.1 were added in triplicate at final concentration of 3 μg/mL and 1 μg/mL or final indicated concentrations and a final volume 200 μL/well. Cells were then incubated at 37° C. and 5% CO2, and cell viability was detected at 72 hours or 96 hours by cell proliferation reagent WST-1 (Roche (Nutley, N.J.), Cat. No. 11644807001) following manufacturer's instructions. In brief, at the end of incubation 100 μL of medium was withdrawn and 10 μL/well of WST-1 was added to the tested cell line. After optimal color development (when OD450 of untreated control ≧1.00), absorbance at 450 nm (OD450 value) was measured by spectrophotometer (Molecular Devices (Sunnyvale, Calif.), VERSAmax microplate reader). The mean of the triplicates was obtained and background (medium control) was subtracted. The resultant OD450 values were then used to calculate % inhibition according to the following formula: [OD450 solvent−OD450 sample]/[OD450 solvent]*100.
(§2) We further examined the in vitro cytotoxic activity of the c5D7/Tap18Hr1 in the binding-positive colorectal cancer cell line DLD-1, and binding-negative pancreatic cell line PANC-1. Consistent with data presented above, effective growth inhibition in DLD-1 cells was induced by c5D7/Tap18Hr1 but not by c5D7 antibody alone (Table 6).

[2] = system: pancreatic cancer cell line PANC-1; test: In-vitro cytotoxicity by WST-1 assay, PANC-1; assay type: cell-based; details: PANC-1 (binding-negative), Table 6
Method: The pancreatic cancer cell line PANC-1 (BCRC, Cat. No. 60284) was cultured in Dulbecco's modified Eagle's medium (GIBCO, Cat. No. 11965) supplemented with 10% FBS and 100 U/mL penicillin/100 μg/mL streptomycin.
as §1, §2

[3] = system: colorectal cancer DLD-1 tumor; test: ADC treatment in DLD-1 subcutaneous xenograft model; assay type: in vivo, C.B-17 SCID mice; details: DLD-1 xenograft
Method: The chimeric 5D7-54.17 antibody (c5D7) was used in preparing an antibody drug conjugate (ADC), c5D7/Tap18Hr1 (see above for the methods of making the ADC). The anti-tumor activity of c5D7/Tap18Hr1 was evaluated in vivo on DLD-1 transplanted SCID mice. Treatment was initiated at days 1 and 5 following tumor inoculation with vehicle or ADC at 3 mg/kg.

| Molecule | % inhibition ([1]; 0.1 μg/mL) | % inhibition ([1]; 0.31 μg/mL) | % inhibition ([2]; 0.1 μg/mL) | % inhibition ([2]; 0.31 μg/mL) | body weight ([3]; 3 mg/kg at days 1 and 5, after treatment) | body weight on average ([3]; 3 mg/kg at days 1 and 5, after treatment, either group) | tumor growth ([3]; 3 mg/kg intravenously at days 1 and 5 (vehicle approached 500 mm^3 at day 14)) |
| --- | --- | --- | --- | --- | --- | --- | --- |
| c5D7/Tap18Hr1 (conjugate) heavy: EVQLQQSGPEVVKPGASMKMSCKTSGYKFTGYYMDWVKQSLGASFEWIGRVIPSNGDTRYNQKFEGKATLTVDRSSSTAYMELNSLTSEDSAVYYCARKPLSGNAADYWGQGTSVTVST[letters of human IgG1 constant region omitted] light: ETTVTQSPASLSVATGEKVTIRCITSTDIDDDMNWYQQKPGEPPKLLISDGNTLRPGVPSRFSSSGYGTDFVFTIENTLSEDITDYYCMQSDNMPFTFGSGTKLEIKRTVAAPSVFIFPPSDEQLKSGTASVVCLLNNFYPREAKVQWKVDNALQSGNSQESVTEQDSKDSTYSLSSTLTLSKADYEKHKVYACEVTHQGLSSPVTKSFNRGEC | 35.4% | 62.0% | 2.9% | 1.4% | remained unchanged | 25 g | completely suppressed tumor growth |
| c5D7: chimeric 5D7-54.17 anti-transferrin receptor antibody, heavy chain SEQ ID NO:3, light chain SEQ ID NO:4 (antibody) heavy: EVQLQQSGPEVVKPGASMKMSCKTSGYKFTGYYMDWVKQSLGASFEWIGRVIPSNGDTRYNQKFEGKATLTVDRSSSTAYMELNSLTSEDSAVYYCARKPLSGNAADYWGQGTSVTVST[letters of human IgG1 constant region omitted] light: ETTVTQSPASLSVATGEKVTIRCITSTDIDDDMNWYQQKPGEPPKLLISDGNTLRPGVPSRFSSSGYGTDFVFTIENTLSEDITDYYCMQSDNMPFTFGSGTKLEIKRTVAAPSVFIFPPSDEQLKSGTASVVCLLNNFYPREAKVQWKVDNALQSGNSQESVTEQDSKDSTYSLSSTLTLSKADYEKHKVYACEVTHQGLSSPVTKSFNRGEC | 0.6% | −0.3% | 4.6% | 4.5% |  |  |  |
